Data: US20160208003A1 (AFFITECH RESEARCH, published 2016)

Target: T1, human CC chemokine receptor 4 (CCR4) (human, UniProt P51679 1-360)
T1 construct: whole, on cells; Always presented on cells; also called CD194; human CCR4
T1 sequence (looked up): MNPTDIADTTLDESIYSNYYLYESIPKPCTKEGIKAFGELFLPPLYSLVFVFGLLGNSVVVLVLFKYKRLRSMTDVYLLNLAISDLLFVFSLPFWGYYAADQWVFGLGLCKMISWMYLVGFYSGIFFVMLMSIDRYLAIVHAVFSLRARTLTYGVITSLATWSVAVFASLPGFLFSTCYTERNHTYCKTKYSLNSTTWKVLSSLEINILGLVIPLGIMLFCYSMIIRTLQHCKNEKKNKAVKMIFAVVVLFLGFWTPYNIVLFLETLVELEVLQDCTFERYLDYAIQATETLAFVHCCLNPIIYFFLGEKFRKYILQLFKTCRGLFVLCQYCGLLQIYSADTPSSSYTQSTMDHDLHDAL
Experiment: flow cytometry (EasyCyte), purified scFv

B1: 17G scFv (scFv)
scFv: [letters of about 100 residues omitted]IRYSAGYWGQGTLVTVSSKLSGSASAPKLEEGEFSEARVSYVLTQPPSASGTPGQRVTISCSGSSSNIGSNYVYWYQQLPGTAPKLLIYRNNQRPSGVPDRFSGSKSGTSASLAISGLRSEDEADYYCAAWDDRLSGWVFGGGTKLTVLAAAGSEQKLISEEDLNSHHHHHH
notes: For staining the scFv was pre-incubated with an anti-c-myc antibody with human Fc (cross-linked, dimer-like); also called scFv 17G
  binding result: binds
